# Test results taken from PubChem BioAssay AID624296 (National Center for Advancing Translational Sciences (NCATS), 2012).
# The campaign covered roughly 350,000 compounds. About 9,900 (2.8%) were called active. The inconclusive results got no clear call from the source; some entries with a clear call stand among them for comparison. The call rests on the fitted dose curve; in most records, active means well fitted activation curve with a large enough effect; inconclusive means small, poorly fitted or top-dose-only effect; inactive means no such curve, though single readings can be large or run the other way. No potency is given beside an inconclusive call; the fits are too rough.
# Assay: A quantitative high throughput screen for small molecules that induce DNA re-replication in MCF 10a normal breast cells. Further: nearly all actives have a fitted effect of over 50% in size.
# Settings: MCF 10A DNA re-replication, Hoechst nuclear intensity, 48 h; series mostly up to 46.1 µM
# Potency means the concentration at half of the fitted maximal effect; tags describe the fitted curve by direction and shape.
row,SMILES,Potency
1,Cc1cccc(NC(=S)N2CCC(c3nc4ccccc4o3)CC2)c1C,"inconclusive [activator, full curve, poor fit]"
2,Cc1cc(Br)cc(Cl)c1OCC(=O)NC(=O)NCc1ccccc1,active: 18.4 µM
3,O=S(=O)(N/N=C1/CC(c2ccccc2)Oc2ccccc21)c1ccccc1 (stereo not given),"inconclusive [activator, single point]"
4,CC(C)(C)NC(=O)CN(C(=O)C(=O)Nc1ccc2c(c1)OCCO2)C1CCCC1,"inconclusive [activator, single point]"
5,Cc1ccc(-n2c(C)cc(/C=N/NC(=O)c3ccncc3)c2C)c(C)c1,"inconclusive [activator, single point]"
6,O=C1N(Cc2ccccc2)CC2(Br)COCOC12O (stereo not given),"inconclusive [activator, single point]"
7,CCCC(=O)NC(c1ccc(N(C)C)cc1)c1ccc2cccnc2c1O (stereo not given),"inconclusive [activator, full curve, poor fit]"
8,Cc1ccc(S(=O)(=O)N2CCN(C(=O)CN(Cc3ccco3)Cc3cccs3)CC2)cc1,inactive
9,COc1ccc(N(C(=O)c2snc(C(N)=O)c2N)C(C(=O)NC2CCCC2)c2cccs2)c(OC)c1 (stereo not given),"inconclusive [activator, single point]"
10,COc1ccc(-c2nn(-c3ccccc3)cc2/C=C(\CC(=O)O)c2nc3ccccc3s2)cc1OC,active: 18.4 µM
11,Cc1ccc(-n2c(C)c(C)c3c(N)ncnc32)cc1,"inconclusive [activator, single point]"
12,COc1ccccc1N1CCN(C(=O)CSc2nc3ccccc3o2)CC1,"inconclusive [activator, single point]"
13,C/C(=N\NC(N)=O)c1c(F)cccc1F,inactive
14,Cc1ccc(NC(=S)NCC23C=CC(O2)C2C(=O)N(c4ccc(C)cc4)C(=O)C23)cc1 (stereo not given),"inconclusive [activator, partial curve, poor fit]"
15,Cc1ccc(C2=NN(CC(=O)O)C(=O)CC2)cc1,inactive
16,Cc1cc(C)c(C#N)c(SCC(=O)N(CC(C)C)C2CCS(=O)(=O)C2)n1 (stereo not given),inactive
17,CN(C(=S)Nc1ccccc1)c1ccccc1,"inconclusive [activator, partial curve, poor fit]"
18,N#CC1=C(N)C(C#N)(C#N)[C@H](c2ccoc2)[C@H]2CN(Cc3ccccc3)CC=C12,active: 7.31 µM
19,NS(=O)(=O)c1cccc(NC(=O)CSc2nnc(C3CC3)n2Cc2ccccc2)c1,inactive
20,CCOC(=O)C1(Cc2ccccc2)CCN(Cc2cccc3c2OCO3)CC1,"inconclusive [activator, single point]"
21,COc1cccc2c1Oc1cc([N+](=O)[O-])cc(N(C)C(C)=O)c1C=C2,"inconclusive [activator, single point]"
22,N/C(=N\OC(=O)c1ccc(Cl)c([N+](=O)[O-])c1)c1ccccc1,inactive
23,O=C(COc1ccc(Cl)cc1)NC1=NN(c2ccccc2)C(=O)C1,"inconclusive [activator, single point]"
24,CC(=O)CCc1ccc(OCC(=O)Nc2cccc(S(=O)(=O)N(C)c3ccccc3)c2)cc1,"inconclusive [activator, partial curve, poor fit]"

row,SMILES,Potency
1,O=C(NCCN1C(=O)S/C(=C\c2ccccc2)C1=O)C1CCN(S(=O)(=O)c2cccs2)CC1,"inconclusive [activator, partial curve, poor fit]"
2,O=C(N/C(=C/c1ccc(Br)cc1)C(=O)N1CCOCC1)c1cccs1,"inconclusive [activator, partial curve, poor fit]"
3,Cc1ccccc1OCCC(=O)OCC(=O)N(C)c1c(N)n(Cc2ccccc2)c(=O)[nH]c1=O,inactive
4,Cc1cc(=O)[nH]c2ccc(S(=O)(=O)NC3CCCCC3)cc12,inactive
5,COc1ccccc1C(=O)N/N=C(\C)c1cccnc1,inactive
6,C=CCC1NS(=O)(=O)OC(CCc2ccccc2)C1O (stereo not given),inactive
7,Cc1ccc(C(=O)CSc2nnnn2-c2ccccc2)o1,active: 0.411 µM
8,Cc1cc(C)cc(-n2c(SC(C)C(=O)NCc3ccc4c(c3)OCO4)nc3ccccc3c2=O)c1 (stereo not given),"inconclusive [activator, single point]"
9,C=C(C)CCC1(C)NC(=O)N(c2ccccc2)N1 (stereo not given),"inconclusive [activator, partial curve, poor fit]"
10,COc1ccccc1NC(=O)c1sc2nc(Cc3ccccc3)cc(C(F)(F)F)c2c1N,"inconclusive [activator, full curve, poor fit]"
11,Cc1ccc(C(=O)O)cc1-c1ccc(/C=C2\SC(=O)N(CC(=O)Nc3ccccc3)C2=O)o1,active: 23.1 µM
12,O=C(NCC1(c2ccccc2)CCCC1)C1(c2ccccc2)CCCC1,"inconclusive [activator, partial curve, poor fit]"
13,CNC(=S)NNC(=O)c1cccn(Cc2ccc(Cl)c(Cl)c2)c1=O,inactive
14,CCCCC(=O)Nc1cccc(-c2csc(-c3ccccc3)n2)c1,active: 25.9 µM
15,CCc1cccc(CC)c1-n1c(SCC(=O)N2CCc3ccccc32)nc(O)cc1=O,"inconclusive [activator, partial curve]"
16,COc1ccc(/C(O)=C2/C(=O)C(=O)N(Cc3ccco3)C2c2cccs2)cc1 (stereo not given),"inconclusive [activator, partial curve, poor fit]"
17,COc1ccc(C)cc1S(=O)(=O)N1c2ccc(C)cc2C2CN(C)CCC21 (stereo not given),"inconclusive [activator, full curve, poor fit]"
18,CCC(C)n1c(SCC(=O)NC2CCCC2)nc2ccccc2c1=O (stereo not given),"inconclusive [activator, partial curve, poor fit]"
19,CS(=O)(=O)Nc1ccc(C(=O)Nc2cccc([N+](=O)[O-])c2)cc1,"inconclusive [activator, full curve, poor fit]"
20,COc1ccccc1-c1n[nH]c(=S)n1-c1ccccc1,inactive
21,COc1cccc(-c2nnc(N(C)C(=O)C3CCOC3)s2)c1 (stereo not given),"inconclusive [activator, partial curve]"
22,CCc1cc(C(=O)c2ccc(OC)cc2)c(NC(=O)CN2CCN(C)CC2)s1,"inconclusive [activator, single point]"
23,Cc1cc(N2CCC(C)CC2)nc(SCC(=O)c2ccccc2)n1,"inconclusive [activator, partial curve]"
24,Cc1cc2ccccn2c1C(=O)c1ccc(Cl)c([N+](=O)[O-])c1,inactive

row,SMILES,Potency
1,CCOc1ccc(C(=O)Nc2ccc(Cc3ccncc3)cc2)cc1Br,"inconclusive [activator, single point]"
2,CC(Oc1cc2oc(=O)c3c(c2cc1Cl)CCC3)C(=O)NCc1ccncc1 (stereo not given),"inconclusive [activator, single point]"
3,Cc1cc(Oc2ccc3ccccc3c2)nc(SCC(=O)c2ccccc2)n1,"inconclusive [activator, single point]"
4,Cc1c(C(=O)N/N=C/C(C)C)[nH]c2c([N+](=O)[O-])cccc12,active: 20.6 µM
5,COc1ccc([C@@H]2CC=C(C(=O)O)CN2S(=O)(=O)c2ccc(C)cc2)cc1OC,"inconclusive [activator, single point]"
6,Cc1cc(C)n2nc3nc(N4CCCCC4)nc(-c4ccco4)c3c2n1,"inconclusive [activator, single point]"
7,Cc1nc(N)nc(Cl)c1CCC1OCCO1,inactive
8,COc1ccc(CN(C(=O)c2cccs2)c2ccccc2)cc1,"inconclusive [activator, single point]"
9,N#C/C(=N/Nc1ccccc1[N+](=O)[O-])C(N)=S,inactive
10,CSc1nc(C)c2c(n1)N(c1cccc(C)c1)CC2,"inconclusive [activator, single point]"
11,O=C1NN(c2ccc(Cl)c(Cl)c2)C(=O)/C1=C/c1ccc(-c2ccccc2C(=O)O)o1,"inconclusive [activator, single point]"
12,COc1ccc(C(=O)N2CCCN(C)CC2)cc1S(=O)(=O)N(C)Cc1ccccc1,inactive
13,Cc1nn(-c2ccccc2)nc1C(=O)Nc1nnc(C(F)(F)F)s1,"inconclusive [activator, partial curve, poor fit]"
14,Oc1ccc(-n2nnnc2SCc2ccccc2Br)cc1,inactive
15,Cc1ccc2nc3ccc(N4CCCCCCC4)nn3c(=O)c2c1,"inconclusive [activator, partial curve, poor fit]"
16,COC(=O)c1cnn(-c2ccc(F)cc2F)c1/C=N/NC(N)=S,inactive
17,COc1ccc(C(=O)CN2C3=NCCCN3c3ccccc32)cc1OC,inactive
18,Cc1ccc2c(c1)c1c(n2CC(O)CNC2CCCCC2)CCCC1 (stereo not given),"inconclusive [activator, single point]"
19,CCC(=O)NNc1ccc(Br)cc1,"inconclusive [activator, single point]"
20,CC1CN=C(N(C(=O)Nc2ccccc2)C(C)c2ccccc2)S1 (stereo not given),inactive
21,COc1ccc(C2NC(=O)c3ccccc3N2)cc1 (stereo not given),"inconclusive [activator, partial curve, poor fit]"
22,COc1cc(C)ccc1OCCOCCOc1c(C)cc(C)cc1Br,"inconclusive [activator, partial curve, poor fit]"
